# Source: PubChem BioAssay AID1347071 (National Center for Advancing Translational Sciences (NCATS), 2019)
# Out of some 410,000 compounds screened, about 260 (0.063%) were called active. This list was built around the results that the source calls inconclusive (neither active nor inactive); the mix of calls is not that of the screen. Calls follow the shape of the dose curve; as a rule, active = well fitted activation curve with a large enough effect; inconclusive = small, poorly fitted or top-dose-only effect; inactive = no such curve, though single readings can be large or run the other way. No potency is given beside an inconclusive call; the fits are too rough.
# Assay: qHTS for compounds that reverse cellular toxicity of Amyloid beta (A-beta) peptide in yeast: Primary Screen; also: nearly all actives have a fitted effect of over 55% in size
# Settings: yeast expressing A-beta42, growth rescue, OD600, 48 h; growth rescue: at 46.1 µM (top of the series), 0% DMSO, 100% iron-clioquinol control
# Text: The A-beta peptide is produced by the processing of the amyloid precursor protein (APP) by two proteases, beta and gamma secretases. […] A-beta42 is regarded as the most amyloidogenic form due to its hydrophobicity; however, precisely how A-beta42 induces neurotoxicity is unclear. To understand further this biology and its potential therapeutic implications for human neurodegenerative disease, a quantitative high-throughput screen for compounds that reverse the cellular toxicity of the A-beta peptide was developed. A yeast based screen was used because it recapitulates the salient feature of protein mis-folding disorder accurately. This cell-based phenotypic screen provides a significant, unbiased advantage by letting the compounds and models inform us which proteins or pathways are most relevant. The ideal chemical candidates would therefore have activity in both our primary yeast and secondary neuronal toxicity assays, as well as in mouse models. […] For this luminescence assay, inhibition of A-beta rescues the toxic effect in the yeast cell, resulting in increase of signals and the desired phenotype of "Activator". […]
# Two and a half microliter / well of yeast growth medium were dispensed in a 1536 assay plate. […] After 48 hr, the absorbance signal at 600 nm was obtained using the PerkinElmer ViewLux plate reader to assess yeast growth. […]
# Potency is read from the fitted curve at half-maximal effect; tags tell the direction and shape of the fitted curve.
row,Structure (SMILES),Potency
1,O=C1NN(c2ccc(F)c(Cl)c2)C(=O)/C1=C\c1cccc(OC(=O)c2cccs2)c1,"inconclusive [activator, partial curve, poor fit]"
